Source: the supplement of paper PMC9446081
In all, about 39,000 compounds went through this assay and about 220 (0.56%) showed activity. The list shows a part of the results.

Test system: Escherichia coli K-12 BW25113
Assay: relative growth (OD600 normalised to plate interquartile mean) (fraction); higher = less growth inhibition, active = 0.2 or less
Conditions: 50 µM; LB; incubation time: overnight (16-24 h)
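Note: static incubation at 37 °C against the wild-type strain, values averaged over two biological replicates.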

| Compound | relative growth |
| --- | --- |
| Cc1ccc(S(=O)(=O)N(C)C[C@@H]2Oc3ccc(NC(=O)Nc4cccc5ccccc45)cc3C(=O)N([C@@H](C)CO)C[C@@H]2C)cc1 | inactive: 1.03 |
| CSc1ncc(C(=O)NN)n1C | inactive: 1 |
| CN(C)C(=O)C[C@@H]1C=C[C@H](NC(=O)C2CC2)[C@H](CO)O1 | inactive: 1.04 |
| C[C@H](CO)N1C[C@H](C)[C@@H](CN(C)C(=O)Nc2ccc3c(c2)OCO3)Oc2cc(C#Cc3ccncc3)ccc2S1(=O)=O | inactive: 1.05 |
| O=C(C[C@@H]1CC[C@@H]2[C@H](COC[C@H](O)CN2S(=O)(=O)c2cccc(F)c2)O1)NCc1ccc2c(c1)OCO2 | inactive: 1.02 |
| C[C@H](CO)N1C[C@H](C)[C@H](CN(C)S(=O)(=O)c2ccc(Oc3ccccc3)nc2)OCc2cn(nn2)CCCC1=O | inactive: 0.968 |
| C[C@@H]1CCCCO[C@H](CN(C)Cc2ccc(Cl)c(Cl)c2)[C@H](C)CN([C@H](C)CO)C(=O)c2cc(NS(=O)(=O)c3cccs3)ccc2O1 | inactive: 1.05 |
| CCOC(=O)c1cc2c(c(-c3cccc(Br)c3)n1)[C@@H](CCO[Si](C)(C)C(C)(C)C)N([S@](=O)C(C)(C)C)C2 | inactive: 1.04 |
| COc1ccc2c3c([nH]c2c1)[C@H](CO)N(C[C@]13CCN(CC1)Cc1ccccc1F)S(=O)(=O)c1cn(cn1)C | inactive: 1.03 |
| Cc1ccc(S(=O)(=O)Nc2ccc3c(c2)C(=O)N([C@@H](C)CO)C[C@H](C)[C@H](CN(C)Cc2ccc4c(c2)OCO4)OCCCC[C@@H](C)O3)cc1 | inactive: 0.981 |
| C[C@@H]1CN([C@@H](C)CO)S(=O)(=O)c2ccc(C#C[C@@H](C)O)cc2O[C@@H]1CN(C)C(=O)c1ccccc1 | inactive: 0.981 |
| C[C@@H]1CN([C@@H](C)CO)C(=O)c2cccc(NS(=O)(=O)c3cccs3)c2O[C@@H]1CN(C)Cc1ccncc1 | inactive: 0.97 |
| Cc1ccc(S(=O)(=O)Nc2cccc3c2O[C@@H](CN(C)S(=O)(=O)c2cccs2)[C@H](C)CN([C@@H](C)CO)C3=O)cc1 | inactive: 1.01 |
| C[C@@H]1CCCCO[C@@H](CN(C)C(=O)Nc2cccc3ccccc23)[C@H](C)CN([C@@H](C)CO)C(=O)c2cc(NC(=O)CCC(F)(F)F)ccc2O1 | inactive: 1 |
| COc1cccc(S(=O)(=O)N(C)C[C@@H]2Oc3ncc(C#CCN(C)C)cc3C(=O)N([C@H](C)CO)C[C@@H]2C)c1 | inactive: 1.02 |
| Cc1noc(C)c1S(=O)(=O)Nc1ccc2c(c1)CC(=O)N([C@@H](C)CO)C[C@@H](C)[C@@H](CN(C)S(=O)(=O)c1cccs1)O2 | inactive: 1.02 |
| COc1ccc([Si](C)(C)[C@H]2[C@H](CCn3cc([C@H](O)c4ccccc4)nn3)O[C@@]3(C(=O)N(Cc4cccc(N5C(=O)c6cccc7cccc5c67)c4)c4ccccc43)[C@@H]2C)cc1 | inactive: 1.01 |
| COCC#Cc1cnc2c(c1)C(=O)N([C@@H](C)CO)C[C@@H](C)[C@H](CN(C)C(=O)c1cnccn1)O2 | inactive: 1.01 |
| C[C@@H]1CCCCO[C@H](CN(C)C(=O)C2CCCCC2)[C@H](C)CN([C@H](C)CO)C(=O)c2cc(NS(=O)(=O)c3ccccc3)ccc2O1 | inactive: 1.04 |
| C[C@H](CO)N1C[C@H](C)[C@@H](CN(C)CC2CCCCC2)OCCCC[C@H](C)Oc2ccc(NC(=O)CCC(F)(F)F)cc2C1=O | inactive: 0.986 |

| Compound | relative growth |
| --- | --- |
| C[C@H]1CN([C@@H](C)CO)C(=O)c2cccc(NC(=O)CCCCCC(=O)Nc3ccccc3N)c2O[C@H]1CN(C)CC1CCCCC1 | inactive: 0.995 |
| COc1ccc(NC(=O)N(C)C[C@@H]2Oc3c(NC(=O)Nc4cccc5ccccc45)cccc3C(=O)N([C@@H](C)CO)C[C@H]2C)cc1 | inactive: 0.987 |
| C[C@@H]1CN([C@@H](C)CO)C(=O)c2cc(NC(=O)C3CCCCC3)ccc2O[C@@H](C)CCCCO[C@H]1CN(C)C(=O)c1ccccc1 | inactive: 0.972 |
| O=S(=O)(c1cccc2cnccc12)N1CCCNCC1 | inactive: 1.17 |
| CC(=O)OC[C@H]1O[C@@H](NC(N)=O)[C@H](OC(C)=O)[C@@H](OC(C)=O)[C@@H]1OC(C)=O | inactive: 0.997 |
| O=C([C@H]1CCCCN1)N1CCCC1 | inactive: 1 |
| CN1CCC(=C2c3ccccc3CC(=O)c3sccc32)CC1.O=C(O)C=CC(=O)O | inactive: 1.03 |
| C[C@@H]1CN([C@H](C)CO)S(=O)(=O)c2ccc(C#CC(C)(C)O)cc2O[C@H]1CN(C)Cc1ccccc1 | inactive: 1.02 |
| Cc1noc(C)c1S(=O)(=O)Nc1ccc2c(c1)C(=O)N([C@H](C)CO)C[C@H](C)[C@H](CN(C)C(=O)Nc1ccc3c(c1)OCO3)O2 | inactive: 0.993 |
| C[C@@H]1CCCCO[C@H](CN(C)C(=O)Nc2ccc(F)cc2)[C@@H](C)CN([C@@H](C)CO)C(=O)c2cc(NC(=O)NC3CCCCC3)ccc2O1 | inactive: 1.01 |
| COc1ccc(NC(=O)Nc2ccc3c(c2)[C@H]2C[C@H](CC(=O)NCc4ccccn4)O[C@H](CO)[C@H]2O3)cc1 | inactive: 0.995 |
| C[C@@H]1CN([C@H](C)CO)C(=O)c2cc(NS(=O)(=O)c3ccc(F)cc3)ccc2O[C@@H](C)CCCCO[C@@H]1CN(C)C(=O)CCC(F)(F)F | inactive: 0.988 |
| CC(=O)C=C(O)CCC(=O)O | inactive: 0.91 |
| CS(=O)(=O)N1C[C@@H](O)COC[C@@H]2O[C@H](CC(=O)NCc3ccccc3)CC[C@H]21 | inactive: 0.998 |
| COc1ccc(S(=O)(=O)Nc2cccc3c2O[C@H](CN(C)S(=O)(=O)c2ccc(C)cc2)[C@@H](C)CN([C@@H](C)CO)C3=O)cc1 | inactive: 0.967 |
| C[C@H]1COC(=O)[C@@H](NC(=O)OCC2c3ccccc3-c3ccccc32)CC/C=C/C[C@H](CC(=O)N(CCOC(=O)NCCCCCC(=O)NO)Cc2ccccc2)C(=O)N1 | inactive: 1.07 |
| CC(=O)NCC(=O)NS(=O)(=O)c1ccccc1 | inactive: 1 |
| O=C(C[C@H]1C[C@@H]2c3cc(NC(=O)C4CCOCC4)ccc3O[C@@H]2[C@H](CO)O1)NCc1ccc(Cl)cc1 | inactive: 0.986 |
| C[C@@H]1CN([C@H](C)CO)S(=O)(=O)c2ccc(C#Cc3ccccc3)cc2O[C@@H]1CN(C)C(=O)Cc1ccccn1 | inactive: 0.977 |
| C[C@@H]1CN([C@H](C)CO)C(=O)c2cc(C#Cc3ccccc3F)cnc2O[C@H]1CN(C)C(=O)Cc1ccncc1 | inactive: 0.975 |

| Compound | relative growth |
| --- | --- |
| Cc1noc(C)c1S(=O)(=O)Nc1ccc2c(c1)C(=O)N([C@@H](C)CO)C[C@H](C)[C@H](CN(C)C(=O)Nc1ccc(C(F)(F)F)cc1)OCCCC[C@H](C)O2 | inactive: 0.98 |
| COc1ccc([C@@H]([C@H](Cc2ccccc2)OC(C)=O)N2C[C@@H](NC(=O)C(Cl)(Cl)Cl)[C@@H]3[C@H]([C@@H]2Cc2ccccc2)N(C)O[C@H]3c2ccccc2)cc1 | inactive: 1.02 |
| COc1ccc(NC(=O)N(C)C[C@H]2OCCCC[C@H](C)Oc3ccc(NC(=O)NC4CCCCC4)cc3C(=O)N([C@@H](C)CO)C[C@@H]2C)cc1 | inactive: 1.05 |
| Cc1noc(C)c1NC(=O)N(C)C[C@H]1OCCCC[C@H](C)Oc2ccc(NC(=O)NC3CCCCC3)cc2C(=O)N([C@@H](C)CO)C[C@@H]1C | inactive: 0.994 |
| O=C(C[C@H]1CC[C@H]2[C@@H](COC[C@H](O)CN2S(=O)(=O)c2ccccc2)O1)NCc1ccc2c(c1)OCO2 | inactive: 0.973 |
| COc1c(C)cnc2c1c(=O)n(CC#N)c(=O)n2C | inactive: 0.985 |
| C[C@@H]1CN([C@@H](C)CO)C(=O)CCCn2nncc2CO[C@@H]1CN(C)C(=O)Nc1cccc(Oc2ccccn2)c1 | inactive: 1.02 |
| CCc1nn(CCCN2CCN(c3cccc(Cl)c3)CC2)c(=O)n1CCOc1ccccc1 | inactive: 1.2 |
| C[C@H]1CCCCO[C@H](CN(C)C(=O)Nc2ccc3c(c2)OCO3)[C@@H](C)CN([C@@H](C)CO)C(=O)c2cc(NC(=O)Nc3cccc4ccccc34)ccc2O1 | inactive: 1 |
| CN(C)Cc1ccc(O)c(CN(C)C)n1 | inactive: 0.979 |
| C[C@@H]1CN([C@H](C)CO)S(=O)(=O)c2ccc(-c3cccc(C#N)c3)cc2O[C@H]1CN(C)C(=O)c1cccnc1 | inactive: 0.997 |
| C[C@@H]1CN([C@H](C)CO)C(=O)c2cc(NC(=O)Nc3ccccc3)ccc2O[C@@H]1CN(C)S(=O)(=O)c1cn(C)cn1 | inactive: 1.01 |
| COc1ccc(S(=O)(=O)N(C)C[C@@H]2Oc3ccc(N(C)C)cc3CC(=O)N([C@@H](C)CO)C[C@@H]2C)cc1 | inactive: 0.97 |
| Cc1ccc(S(=O)(=O)Nc2ccc3c(c2)C(=O)N([C@@H](C)CO)C[C@H](C)[C@@H](CN(C)S(=O)(=O)c2ccc(C)cc2)OCCCC[C@H](C)O3)cc1 | inactive: 1.03 |
| C[C@H](CO)N1C[C@H](C)[C@@H](CN(C)C(=O)CCCN(C)C)OCCCC[C@H](C)Oc2ccc(NC(=O)Nc3ccc(F)cc3)cc2C1=O | inactive: 0.989 |
| Cc1noc(C)c1NC(=O)N(C)C[C@@H]1OCCCC[C@@H](C)Oc2ccc(NS(=O)(=O)c3cccs3)cc2C(=O)N([C@@H](C)CO)C[C@H]1C | inactive: 1.01 |
| C[C@H]1CCCCO[C@H](CN(C)C(=O)C2CCCCC2)[C@@H](C)CN([C@@H](C)CO)C(=O)c2cc(NC(=O)NC3CCCCC3)ccc2O1 | inactive: 1.02 |
| C[C@H]1CN([C@@H](C)CO)C(=O)Cc2cc(NC(=O)Nc3cccc4c3CCCC4)ccc2O[C@H]1CN(C)S(=O)(=O)c1ccc(Oc2ccccc2)cc1 | inactive: 1.03 |
